# Results as given in the supplement of paper PMC9446081.
# About 220 (0.56%) of roughly 39,000 compounds showed activity. The list shows a part of the results.
# System: Escherichia coli K-12 BW25113
# Assay: relative growth (OD600 normalised to plate interquartile mean) (fraction); higher = less growth inhibition, active = 0.2 or less
# Details: 50 µM; LB; incubation time: overnight (16-24 h)
# 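Further: static incubation at 37 °C against the wild-type strain, values averaged over two biological replicates.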
row,Compound,relative growth
1,CC(=O)c1cc2ccccc2s1,inactive: 0.989
2,COc1ccc(S(=O)(=O)Nc2ccc3c(c2)C(=O)N([C@@H](C)CO)C[C@H](C)[C@H](CN(C)Cc2ccc(C(=O)O)cc2)OCCCC[C@@H](C)O3)cc1,inactive: 0.985
3,C[C@@H]1CCCCO[C@@H](CN(C)S(=O)(=O)c2ccc(Cl)cc2)[C@H](C)CN([C@@H](C)CO)C(=O)c2cc(NC(=O)NC3CCCCC3)ccc2O1,inactive: 1.02
4,CC(C)(C)[S@](=O)N1Cc2cc(C(=O)NCCc3ccncc3)nc(-c3cccc(-c4cccc(C#N)c4)c3)c2[C@@H]1CCO,inactive: 1.04
5,N=C(N)NCCCCNC(=N)N.O=S(=O)(O)O,inactive: 1.03
6,Cc1noc(C)c1S(=O)(=O)Nc1ccc2c(c1)C(=O)N([C@@H](C)CO)C[C@@H](C)[C@@H](CN(C)Cc1ccncc1)O2,inactive: 1.02
7,C[C@@H]1CN([C@H](C)CO)C(=O)c2cc(-c3ccc(C(=O)N(C)C)cc3)cnc2O[C@@H]1CN(C)C(=O)C1CC1,inactive: 1.01
8,Cc1noc(C)c1NC(=O)N(C)C[C@@H]1Oc2ccc(NC(=O)NC(C)C)cc2CC(=O)N([C@H](C)CO)C[C@@H]1C,inactive: 0.964
9,C[C@@H]1CN([C@H](C)CO)C(=O)c2cccc(NC(=O)c3cnccn3)c2O[C@@H]1CN(C)C(=O)Nc1ccc2c(c1)OCO2,inactive: 0.997
10,C[C@@H]1CCCCO[C@@H](CN(C)C)[C@H](C)CN([C@H](C)CO)C(=O)c2cc(NC(=O)Nc3ccc(C(F)(F)F)cc3)ccc2O1,inactive: 0.937
11,CC(C)NC(=O)N(C)C[C@@H]1Oc2ccc(NS(=O)(=O)c3ccccc3)cc2CC(=O)N([C@@H](C)CO)C[C@@H]1C,inactive: 1.02
12,CN(C)CCCNC(=O)C[C@H]1CC[C@@H]2[C@@H](COc3ccc(NC(=O)c4cccc(F)c4)cc3C(=O)N2C)O1,inactive: 0.979
13,Cc1ccc(S(=O)(=O)Nc2ccc3c(c2)C(=O)N([C@H](C)CO)C[C@@H](C)[C@H](CN(C)S(=O)(=O)c2ccc(F)cc2)OCCCC[C@H](C)O3)cc1,inactive: 1.03
14,CCCNC(=O)Nc1ccc2c(c1)OC[C@H](C)N(C(=O)C1CCOCC1)C[C@@H](C)[C@H](OC)CN(C)C2=O,inactive: 0.978
15,C[C@H]1CN([C@@H](C)CO)C(=O)c2cc(NS(=O)(=O)c3cccs3)ccc2O[C@@H]1CN(C)S(=O)(=O)c1cccs1,inactive: 0.998
16,C[C@@H]1CN([C@H](C)CO)C(=O)Cc2cc(NC(=O)CCN3CCOCC3)ccc2O[C@H]1CN(C)S(C)(=O)=O,inactive: 0.987
17,O=C(C[C@@H]1CC[C@H]2[C@@H](COC[C@H](O)CN2C(=O)Nc2ccc(Cl)cc2)O1)NCCc1ccncc1,inactive: 0.957
18,Cc1noc(C)c1S(=O)(=O)Nc1ccc2c(c1)C(=O)N([C@@H](C)CO)C[C@@H](C)[C@H](CN(C)Cc1ccc(Oc3ccccc3)cc1)O2,inactive: 0.998
19,C[C@@H]1CN([C@H](C)CO)C(=O)c2cccc(NC(=O)Nc3ccccc3)c2O[C@H]1CN(C)C(=O)Nc1ccc(C(F)(F)F)cc1,inactive: 0.808
20,CNC[C@@H]1OCCCC[C@H](C)Oc2ccc(NC(=O)Nc3cccc4ccccc34)cc2C(=O)N([C@@H](C)CO)C[C@H]1C,inactive: 1.02

row,Compound,relative growth
1,CO[C@@H](CNS(C)(=O)=O)c1ccsc1,inactive: 0.991
2,C[C@@H]1CN([C@H](C)CO)C(=O)c2cc(NC(=O)Cn3cnnn3)ccc2O[C@@H]1CN(C)S(=O)(=O)c1ccccc1,inactive: 1.02
3,C[C@@H]1CN([C@@H](C)CO)C(=O)c2cc(C#Cc3ccccc3F)cnc2O[C@H]1CN(C)C(=O)c1ccc2c(c1)OCO2,inactive: 0.993
4,COc1ccc(CN2C[C@@H](C)[C@@H](OC)CN(C)C(=O)c3cc(NC(=O)c4nc5ccccc5s4)ccc3OC[C@@H]2C)cc1,inactive: 1.07
5,C[C@@H]1CCCCO[C@@H](CN(C)C(=O)NC2CCCCC2)[C@H](C)CN([C@@H](C)CO)C(=O)c2cc(NS(=O)(=O)c3ccc(F)cc3)ccc2O1,inactive: 0.97
6,O=C(C[C@H]1C=C[C@H](NC(=O)C2CC2)[C@@H](CO)O1)NCCCN1CCOCC1,inactive: 1.02
7,C[C@H]1CN([C@@H](C)CO)C(=O)Cc2cc(NS(=O)(=O)c3ccccc3)ccc2O[C@H]1CN(C)CC1CC1,inactive: 0.981
8,C[C@@H]1CCCCO[C@H](CN(C)Cc2ccc(C(=O)O)cc2)[C@H](C)CN([C@H](C)CO)C(=O)c2cc(NS(=O)(=O)c3ccc(F)cc3)ccc2O1,inactive: 0.97
9,COCC#Cc1ccc2c(c1)O[C@H](CN(C)S(=O)(=O)c1ccc(F)cc1)[C@@H](C)CN([C@H](C)CO)S2(=O)=O,inactive: 1.03
10,COc1cccc(NC(=O)N(C)C[C@@H]2OCc3ccccc3-c3c(n(C)c4ccccc34)C(=O)N([C@H](C)CO)C[C@H]2C)c1,inactive: 1.03
11,C[C@@H]1CN([C@@H](C)CO)S(=O)(=O)c2ccc(Br)cc2O[C@H]1CN(C)Cc1ccccc1F,inactive: 1.03
12,C[C@@H]1CCCCO[C@@H](CN(C)S(=O)(=O)c2cccs2)[C@H](C)CN([C@H](C)CO)C(=O)c2cc(NC(=O)C3CCCCC3)ccc2O1,inactive: 1.02
13,C=C1[C@@H]2[C@H]3OC(=O)[C@@H](C)[C@@H]3[C@@H](O[C@@H]3O[C@H](CO)[C@@H](O)[C@H](O)[C@H]3O)CC(=C)[C@@H]2C[C@@H]1O,inactive: 1.01
14,COc1ccccc1C#Cc1cnc2c(c1)C(=O)N([C@@H](C)CO)C[C@@H](C)[C@@H](CN(C)C(=O)CN(C)C)O2,inactive: 1.02
15,CN(C)CC(=O)N1CC2(C1)[C@@H](c1ccccc1)[C@H](CO)N2S(C)(=O)=O,inactive: 0.982
16,Cn1c([C@H]2C=C(C(=O)N[C@H]3c4ccccc4C[C@H]3O)O[C@@H](OCCCCO)C2)cc(=O)n1-c1ccccc1,inactive: 1
17,COc1ccc(NC(=O)N(C)C[C@@H]2OCCCC[C@H](C)Oc3ccc(NC(=O)Nc4ccc5c(c4)OCO5)cc3C(=O)N([C@@H](C)CO)C[C@H]2C)cc1,inactive: 1.03
18,CC1C2CCC3C4CC=C5CC(N(C)C)CCC5(C)C4CCC32CN1C (centres undefined),inactive: 1.1
19,Cc1noc(C)c1NC(=O)Nc1cccc2c1O[C@@H](CN(C)Cc1ccc(-c3ccccc3)cc1)[C@@H](C)CN([C@H](C)CO)C2=O,inactive: 1.01
20,CC(=O)c1ccc2ccccc2c1,inactive: 0.952

row,Compound,relative growth
1,COCCNCc1ccc(-c2cc3nccc(Oc4ccc(NC(=O)C5(C(=O)Nc6ccc(F)cc6)CC5)cc4F)c3s2)nc1,inactive: 0.965
2,CN1C(=O)c2cc(NC(=O)C3CCCC3)ccc2OC[C@H]2O[C@H](CC(=O)NCCc3ccncc3)CC[C@@H]21,inactive: 0.984
3,C[C@H](CO)N1C[C@H](C)[C@H](CN(C)Cc2ccc(Oc3ccccc3)cc2)Oc2ccc(NC(=O)C3CC3)cc2C1=O,inactive: 0.964
4,O=C(O)Cn1nc2ccccc2n1,inactive: 1.01
5,OCC(CO)NC1CC(O)(CO)C(O)C(O)C1O (centres undefined),inactive: 1.05
6,CCCCn1c(N)c(N(CC)C(=O)Cc2ccc(S(=O)(=O)N3CCOCC3)s2)c(=O)[nH]c1=O,inactive: 0.976
7,COc1ccc(S(=O)(=O)N(C)C[C@@H]2Oc3ccc(NC(=O)Nc4c(C)noc4C)cc3C(=O)N([C@@H](C)CO)C[C@H]2C)cc1,inactive: 1.01
8,C[C@H]1CN([C@@H](C)CO)C(=O)Cc2cc(NC(=O)Nc3cccc4ccccc34)ccc2O[C@H]1CN(C)C(=O)Nc1ccc(F)cc1,inactive: 1.04
9,C[C@H](CO)N1C[C@H](C)[C@@H](CN(C)C(=O)Nc2ccc(F)cc2)OCCCC[C@H](C)Oc2ccc(NC(=O)c3ccccc3)cc2C1=O,inactive: 1
10,N[C@@H](CN1C=CC(=O)C(=O)C1)C(=O)O,inactive: 1.01
11,C[C@H](CO)N1C[C@H](C)[C@@H](CN(C)S(=O)(=O)c2ccc(Cl)cc2)Oc2ccc(NC(=O)Nc3ccc(C(F)(F)F)cc3)cc2CC1=O,inactive: 0.989
12,C=CCOC(=O)[C@H]1[C@@H]2C(=O)O[C@@H](c3ccccc3)[C@@H](c3ccccc3)N2[C@@H](c2ccc(OCCOC(=O)[C@H]3C[C@H]4C(=O)N[C@@H](Cc5ccccc5)C(=O)N4[C@H]3c3cccc(OCCO)c3)cc2)[C@]12C(=O)Nc1ccccc12,inactive: 1.06
13,Cc1ccc(-c2ccc3c(c2)O[C@H](CN(C)C(=O)CN(C)C)[C@H](C)CN([C@@H](C)CO)S3(=O)=O)cc1,inactive: 0.987
14,CO[C@H]1CN(C)C(=O)c2cc(NS(=O)(=O)CC(F)(F)F)ccc2OC[C@H](C)N(C(=O)c2ccc3c(c2)OCO3)C[C@@H]1C,inactive: 0.976
15,C[C@@H]1CN([C@@H](C)CO)C(=O)c2cc(NC(=O)NC3CCCCC3)ccc2O[C@@H](C)CCCCO[C@H]1CN(C)C(=O)Nc1ccccc1,inactive: 1.01
16,CCO[C@H]1OC(C(=O)N2CCN(Cc3ccc4c(c3)OCO4)CC2)=C[C@@H](c2ccc3c(c2)OCO3)[C@@H]1CCCO,inactive: 1.01
17,C[C@@H]1CN([C@H](C)CO)C(=O)c2cc(C#CCN(C)C)cnc2O[C@@H]1CN(C)C(=O)CN1CCOCC1,inactive: 0.994
18,C[C@H](CO)N1C[C@H](C)[C@H](CN(C)Cc2ccc(-c3ccccc3)cc2)Oc2c(NS(=O)(=O)c3cccs3)cccc2C1=O,inactive: 1.04
19,Cc1ccc(S(=O)(=O)Nc2ccc3c(c2)C(=O)N([C@@H](C)CO)C[C@H](C)[C@H](CN(C)Cc2ccncc2)OCCCC[C@@H](C)O3)cc1,inactive: 1.02
